Experimental findings from the supplement of paper PMC4967469 are described below.

A lower IC50 marks a more sensitive line; a fit beyond the top or the lowest dose is shown as a bound at that dose. For AUC the same curve is integrated over the 256-fold range of doses and scaled to a fraction; the more sensitive the line, the further below 1. For some of these results: The top dose, if marked as inferred, comes from the curve model; the source does not state it. For some of these results: An entry number marks a drug with two screens in the source, which often give different values.

Holding throughout (assay): Viability of human cancer cell lines after 72 h of drug (GDSC screen)
Compound in one experiment: Nc1ccn([C@@H]2O[C@H](CO)[C@@H](O)[C@@H]2O)c(=O)n1 [Cytarabine]
As to conditions: top dose 2 µM. The procedure:
(§1)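 Human cancer cell lines in 384-well plates, medium with 10% serum, drug for 72 h over a 256-fold dose range (nine 2-fold or five 4-fold steps up to the top dose). Adherent lines were fixed and stained with the nucleic acid dye Syto60, suspension lines read with resazurin; signal relative to control wells, capped at 0 and 100%. One two-parameter sigmoid per drug and line, fitted in a mixed model over all curves with the slope shared within a line.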

Compound in the next experiment: C/C=C(/C)C(=O)O[C@H]1C(C)=C2[C@H]([C@@H]1OC(=O)CCCCCCC)[C@@](C)(OC(C)=O)C[C@H](OC(=O)CCC)[C@@]1(O)[C@H]2OC(=O)[C@@]1(C)O [Thapsigargin]
Conditions: top dose 0.512 µM; top dose inferred. The method, then:
as §1

Compound in a further experiment: COc1cc(O)c2c(c1)/C=C/C[C@H](O)[C@H](O)C(=O)/C=C\C[C@H](C)OC2=O [(5Z)-7-Oxozeaenol]
Conditions: top dose 10 µM; top dose inferred. The procedure:
as §1

Compound in a further experiment: C=CC(=O)Nc1cc(-n2c(=O)ccc3cnc4ccc(-c5cn[nH]c5)cc4c32)ccc1C [QL-X-138]
Conditions: top dose 10.24 µM; top dose inferred. The procedure:
as §1

Compound in another experiment: COc1cc(N2CCC(O)CC2)ccc1Nc1cc(Nc2ccccc2S(=O)(=O)C(C)C)c2cc[nH]c2n1 [MPS-1-IN-1]
As to conditions: top dose 20 µM; top dose inferred. The procedure:
as §1

Compound in another experiment: Cc1ccc(F)c(NC(=O)Nc2ccc(-c3cccc4[nH]nc(N)c34)cc2)c1 [ABT-869]
Conditions: top dose 1.024 µM; top dose inferred. The procedure: as §1

Compound in a further experiment: CCn1c(-c2nonc2N)nc2cnc(Oc3cccc(NC(=O)c4ccc(OCCN5CCOCC5)cc4)c3)cc21 [GSK269962A]
As to conditions: top dose inferred. The method, then:
as §1

Compound in a further experiment: COc1cc2ncnc(-n3nc(-c4ccccn4)nc3N)c2cc1OC [CP466722]
Conditions: top dose 16 µM; top dose inferred. The method, then: as §1

Compound in another experiment: COc1nc(C)cnc1NS(=O)(=O)c1cccnc1-c1ccc(-c2nnco2)cc1 [Zibotentan]
Conditions: top dose 20 µM; top dose inferred. The method, then: as §1

Compound in the next experiment: C[C@]1(c2nc3c(C(N)=O)cccc3[nH]2)CCCN1 [ABT-888]
As to conditions: top dose 5 µM; top dose inferred. The method, then: as §1

Compound in a further experiment: Cc1cnc(-c2cnc(NCCNc3ccc(C#N)cn3)nc2-c2ccc(Cl)cc2Cl)[nH]1 [CHIR-99021]
The procedure:
as §1

Compound in a further experiment: O=c1cc(-c2cccc3c2Sc2ccccc2S3)oc(N2CCOCC2)c1 [KU-55933]
Conditions: top dose 10 µM. The method, then:
as §1

Setting [1] is: top dose 5 µM, screen: GDSC drug entry 1192.
Where [2] appears, read: top dose 2.56 µM, screen: GDSC drug entry 154.
Where [3] appears, read: top dose 10 µM, screen: GDSC drug entry 1241, top dose inferred.
Where [4] appears, read: top dose 2.5 µM, screen: GDSC drug entry 127.

As to “EPLC-272H (lung squamous cell carcinoma, adherent)”, the AUC was 0.784 in the experiment with Cytarabine; 0.549 with Thapsigargin; 0.322 with (5Z)-7-Oxozeaenol; 0.566 in the experiment with QL-X-138; 0.793 with MPS-1-IN-1; 0.955 in the experiment with ABT-869. Moreover, the AUC worked out at 0.863 in the experiment with GSK269962A (setting [1]), 0.602 with CP466722, 0.976 with Zibotentan and 0.983 in the experiment with ABT-888. Also, the IC50 – broadly, the concentration at which inhibition is half-maximal – was 0.967 µM with Cytarabine; 0.0443 µM in the experiment with Thapsigargin; 0.185 µM with (5Z)-7-Oxozeaenol; 0.991 µM with QL-X-138; 10.5 µM with MPS-1-IN-1; over 1.02 µM with ABT-869. In addition, the IC50 is over 5 µM with GSK269962A (setting [1]), 1.97 µM in the experiment with CP466722, over 20 µM in the experiment with Zibotentan and over 5 µM with ABT-888.
With H2722 (mesothelioma, adherent), the AUC worked out at 0.865 with CHIR-99021 (setting [2]); 0.838 with CHIR-99021 (setting [3]); 0.686 with Cytarabine; 0.477 in the experiment with Thapsigargin; 0.676 with (5Z)-7-Oxozeaenol; 0.869 in the experiment with QL-X-138. Besides, the AUC with MPS-1-IN-1 came out at 0.973; with ABT-869, 0.974; in the experiment with GSK269962A (setting [1]), 0.696; with CP466722 it was 0.871; with Zibotentan, 0.979; with ABT-888 it was 0.984. Moreover, the IC50 with CHIR-99021 (setting [2]) is over 2.56 µM; with CHIR-99021 (setting [3]) it was 8.7 µM; with Cytarabine, 0.462 µM; in the experiment with Thapsigargin, 0.0273 µM; with (5Z)-7-Oxozeaenol, 2.14 µM; with QL-X-138, over 10.2 µM. For the same cell line, the IC50 was over 20 µM in the experiment with MPS-1-IN-1; over 1.02 µM in the experiment with ABT-869; 1.24 µM in the experiment with GSK269962A (setting [1]); over 16 µM with CP466722; over 20 µM with Zibotentan; over 5 µM in the experiment with ABT-888.
On to HCC70 (breast, adherent), for which the AUC with CHIR-99021 (setting [2]) worked out at 0.988; with CHIR-99021 (setting [3]), 0.981; in the experiment with Cytarabine, 0.94; with Thapsigargin, 0.456; with (5Z)-7-Oxozeaenol, 0.803; with QL-X-138 it was 0.792. The AUC with MPS-1-IN-1 turned out to be 0.974; in the experiment with ABT-869, 0.984; in the experiment with GSK269962A (setting [1]), 0.987; with CP466722 it was 0.852; in the experiment with Zibotentan, 0.964; with ABT-888 it was 0.965. The IC50 in the experiment with CHIR-99021 (setting [2]) was over 2.56 µM; with CHIR-99021 (setting [3]), over 10 µM; in the experiment with Cytarabine it was over 2 µM; in the experiment with Thapsigargin, 0.0243 µM; with (5Z)-7-Oxozeaenol it was 4.84 µM; in the experiment with QL-X-138, 4.53 µM. Besides, the IC50 is over 20 µM in the experiment with MPS-1-IN-1; over 1.02 µM with ABT-869; over 5 µM in the experiment with GSK269962A (setting [1]); 12 µM with CP466722; over 20 µM with Zibotentan; over 5 µM with ABT-888.
For the cell line HCC1395 (breast, adherent), the AUC is 0.893 in the experiment with CHIR-99021 (setting [2]); 0.918 in the experiment with CHIR-99021 (setting [3]); 0.962 with KU-55933; 0.854 in the experiment with Cytarabine; 0.279 with Thapsigargin; 0.827 in the experiment with (5Z)-7-Oxozeaenol. The AUC with QL-X-138 turned out to be 0.926; with MPS-1-IN-1 it was 0.979; in the experiment with ABT-869 it was 0.984; with GSK269962A (setting [1]) it was 0.892; in the experiment with CP466722 it was 0.96; with Zibotentan, 0.982. In addition, the IC50 with CHIR-99021 (setting [2]) was over 2.56 µM; with CHIR-99021 (setting [3]), over 10 µM; with KU-55933, over 10 µM; in the experiment with Cytarabine, over 2 µM; with Thapsigargin it was 0.00654 µM; with (5Z)-7-Oxozeaenol it was 7.84 µM. Besides, the IC50 in the experiment with QL-X-138 was over 10.2 µM; with MPS-1-IN-1 it was over 20 µM; with ABT-869, over 1.02 µM; in the experiment with GSK269962A (setting [1]), over 5 µM; in the experiment with CP466722 it was over 16 µM; with Zibotentan it was over 20 µM.
With HCC1937 (breast, adherent), the AUC with CHIR-99021 (setting [2]) worked out at 0.984; with CHIR-99021 (setting [3]) it was 0.925; with KU-55933, 0.978; in the experiment with Cytarabine, 0.811; with Thapsigargin, 0.075; with (5Z)-7-Oxozeaenol it was 0.823. Also, the AUC with QL-X-138 came out at 0.639; in the experiment with MPS-1-IN-1 it was 0.942; in the experiment with ABT-869 it was 0.979; in the experiment with GSK269962A (setting [1]), 0.971; with CP466722, 0.848; in the experiment with Zibotentan, 0.983. For the same cell line, the IC50 is over 2.56 µM in the experiment with CHIR-99021 (setting [2]); over 10 µM with CHIR-99021 (setting [3]); over 10 µM with KU-55933; 1.27 µM with Cytarabine; under 0.002 µM with Thapsigargin; 7.12 µM in the experiment with (5Z)-7-Oxozeaenol. Besides, the IC50 with QL-X-138 is 1.66 µM; in the experiment with MPS-1-IN-1, over 20 µM; in the experiment with ABT-869, over 1.02 µM; with GSK269962A (setting [1]), over 5 µM; with CP466722 it was 14.8 µM; in the experiment with Zibotentan, over 20 µM.
With HCC2998 (large intestine, adherent), the AUC with CHIR-99021 (setting [2]) is 0.97; with CHIR-99021 (setting [3]) it was 0.983; with Cytarabine it was 0.708; with Thapsigargin, 0.134; with (5Z)-7-Oxozeaenol it was 0.526; in the experiment with QL-X-138, 0.882. Further, the AUC was 0.947 with MPS-1-IN-1; 0.988 in the experiment with ABT-869; 0.967 with GSK269962A (setting [4]); 0.987 in the experiment with GSK269962A (setting [1]); 0.927 with CP466722; 0.988 with Zibotentan. In the experiment with ABT-888, the AUC stood at 0.988. Also, the IC50 is over 2.56 µM in the experiment with CHIR-99021 (setting [2]); over 10 µM with CHIR-99021 (setting [3]); 0.472 µM in the experiment with Cytarabine; 0.00236 µM in the experiment with Thapsigargin; 0.736 µM in the experiment with (5Z)-7-Oxozeaenol; over 10.2 µM with QL-X-138. For the same cell line, the IC50 with MPS-1-IN-1 was over 20 µM; with ABT-869, over 1.02 µM; with GSK269962A (setting [4]), over 2.5 µM; with GSK269962A (setting [1]), over 5 µM; with CP466722 it was over 16 µM; in the experiment with Zibotentan, over 20 µM. Besides, the IC50 in the experiment with ABT-888 was over 5 µM.
